Measured values taken from PubChem BioAssay AID894 (National Center for Advancing Translational Sciences (NCATS), 2007).
Several values for one entry are separate records, joined by “and”; a condition that tells them apart may be missing. Equal entries are not always repeated. Screen size: about 150,000 compounds; about 6,500 (4.3%) were called active. The inconclusive results got no clear call from the source; some entries with a clear call stand among them for comparison. The call rests on the fitted dose curve; in most records, active means well fitted inhibition curve with a large enough effect (not every such curve was filed as active); inconclusive means small, poorly fitted or top-dose-only effect, or another doubt; inactive means no such curve, though single readings can be large or run the other way. A potency beside an inconclusive call is a rough fit, not a confirmed value.

Molecular target: 15-hydroxyprostaglandin dehydrogenase [NAD(+)] (Homo sapiens) (UniProt P15428)
Chain of UniProt P15428 (P15428 whole entry, looked up): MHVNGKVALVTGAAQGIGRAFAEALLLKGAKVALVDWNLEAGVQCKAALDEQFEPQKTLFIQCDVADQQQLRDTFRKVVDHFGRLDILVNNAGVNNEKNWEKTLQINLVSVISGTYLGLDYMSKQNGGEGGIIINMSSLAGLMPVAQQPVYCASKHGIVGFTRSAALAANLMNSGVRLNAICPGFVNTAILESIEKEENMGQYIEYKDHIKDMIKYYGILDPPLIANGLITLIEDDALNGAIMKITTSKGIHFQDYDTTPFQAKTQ
Assay: qHTS Assay for Inhibitors of HPGD (15-Hydroxyprostaglandin Dehydrogenase)
Settings: purified HPGD, NADH fluorescence kinetic, PGE2 substrate; activity change, negative = inhibition: stronger effect = lower value
In short: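 NADH formation kinetics: reaction with 30 uM PGE2 and 1 mM NAD+ (final), 20 nM enzyme, Tris-HCl pH 8 with Tween 20, after 15 min compound preincubation at room temperature. Fluorescence change, last versus first of five reads.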
On the % scale 0 is the no-effect control and ±100 the full control effect; potency means the concentration at half of the fitted maximal effect; tags describe the fitted curve by direction and shape.

Activity change, negative = inhibition, inactive:
CC(C)c1nnc(NC(=O)C2c3ccccc3Oc3ccccc32)s1 -6.99%
C/C=C/COc1nc2c(c(=O)n(C)c(=O)n2C)n1C -9.54%
O=C(/C=C/c1ccccc1Cl)N(Cc1ccc(Cl)cc1)C1CCS(=O)(=O)C1 (stereo not given) -3.73%
CCCCC(=O)N/N=C/c1ccc(N2CCOCC2)c([N+](=O)[O-])c1 3.25%
Cc1ccc(CSC(N)=Nc2ccccc2)cc1C -9.54%
ClC/C=C/CCl -8%
CCc1ccc(/C=c2\s/c(=C\C(=O)C(C)(C)C)[nH]c2=O)cc1 -28.9%
C=CCn1cc(C(=O)N2CCN(C)CC2)c(=O)c2cc(S(=O)(=O)N3CCCC3)ccc21 -10.4%
Cc1ccc(S(=O)(=O)N2CCC(C(=O)NCc3ccncc3)CC2)cc1 -7.69%
Cc1ccc(C(=O)c2cncc(Br)c2)cc1 -14.7%
Cc1cc(/C=C2/NC(=O)N(Cc3ccccc3F)C2=O)c(C)n1C(C)C -26%
CCOC(=O)c1c(C)c(C(=O)Nc2cc(F)ccc2F)c(C)n1C -2.24%
CC(C)Cc1nc(NCCN2CCOCC2)c(C#N)c2c1COC(C)(C)C2 -2.8%
CC1C(=NO)C(C)C(c2ccc(N(C)C)cc2)NC1c1ccc(N(C)C)cc1 (stereo not given) -15.6%
O=C(Cc1cccs1)Nc1nnc(SCC(=O)N2CCCCC2)s1 -19.9%
Cc1c(C(=O)NCc2ccc3c(c2)OCO3)sc2nc(-c3ccc(F)cc3)cn12 -16.5%
COc1ccccc1NC(=O)c1ccc(NC(=O)CSc2nnnn2C)cc1 -26.2%

Potency, active:
COc1ccc2cc(C(=O)N3CCOCC3)sc(=O)c2c1OC 22.4 µM
NC1=NC(=O)/C(=C/c2cn(CCC(=O)O)nc2-c2ccc(Cl)cc2)S1 12.6 µM
Cc1cc(SCC(=O)N2CCCC2)nc2ccccc12 12.6 µM
Cc1oc(-c2ccc(Cl)cc2)cc1-c1nn2c(-c3ccoc3C)nnc2s1 25.1 µM
C=C(C)CSC1=C(C#N)C(c2ccccc2)CC(=O)N1 (stereo not given) 25.1 µM
Cc1cc(C)nc(N/N=C/C2=C(N3CCOCC3)C(=C/c3ccccc3)/CC2)n1 17.8 µM
CCN(CC)S(=O)(=O)c1ccc2oc(SCC3CN=C(c4ccc(OC)cc4)S3)nc2c1 (stereo not given) 14.1 µM
Clc1cccc(Nc2c3c(nc4ncnn24)CCC3)c1 15.8 µM
CCNc1ccccc(C(=O)/C=C/c2ccc3c(c2)OCO3)c1=O 17.8 µM
Cc1ccccc1NC(=S)NCc1ccc(Cl)cc1 15.8 µM
CCCOc1ccccc1-c1nc2n[nH]nc2c(=O)[nH]1 6.31 µM and 15.8 µM and 8.91 µM
Cc1ccc(C(=O)Oc2oc(-c3ccco3)nc2C=Nc2ccc(Cl)cc2)cc1 6.31 µM

Potency, inconclusive:
CSC(=[SH+])N=N/C(=C1/C=CC=CN1)c1ccccn1.[Cu][Br] 6.31 µM [inhibitor, single point]
CCC(=O)Nc1cccc(C(=O)/C=C/c2cc(Br)ccc2OC)c1 14.1 µM [inhibitor, partial curve]
COC(=O)c1c(NC(=O)COC(=O)c2ccccc2O)sc2c1CCCCC2 28.2 µM [inhibitor, partial curve]
CN1CCN(C2=Cc3ccc(Cl)cc3Sc3ccc(F)cc32)CC1 14.1 µM [inhibitor, partial curve]
Cc1ccc(C)c(N2CCN(C(=O)C3CCN(S(=O)(=O)c4cccc5nsnc45)CC3)CC2)c1 6.31 µM [inhibitor, single point]
Cc1cc(OCCOc2cccc3cccnc23)cc(C)c1Cl 35.5 µM [inhibitor, single point]
O=C(CCCc1nc2ccccc2s1)N1CCN(c2ccccc2)CC1 31.6 µM [inhibitor, single point]
CCOC(=O)c1cnc(SCC(=O)Nc2cc(OC)ccc2OC)nc1N 17.8 µM [inhibitor, partial curve]
CCOC(=O)CSc1ccc2nnc(-c3cccnc3)n2n1 31.6 µM [inhibitor, single point]
COc1ccc2nc(C)cc(SCC(=O)NNC(=O)COc3cccc4ccccc34)c2c1 28.2 µM [inhibitor, partial curve]
COC(=O)c1ccccc1NC(=O)NCC1CCCO1 (stereo not given) 31.6 µM [inhibitor, partial curve]
COC(=O)c1sc(NC(=O)C(C)C)c(C(=O)OC)c1C 7.08 µM [inhibitor, partial curve]
Cc1cc(C)c2cc(C(c3nnnn3C3CCCC3)N3CCOCC3)c(=O)[nH]c2c1 (stereo not given) 31.6 µM [inhibitor, partial curve]
N#Cc1cccc(-c2nnc(SCc3ccccc3C#N)o2)c1 39.8 µM [inhibitor, single point]
Cc1ccc2c(c1)c1ncnc(N3CCc4ccccc4C3)c1n2C 25.1 µM [inhibitor, partial curve]
COc1ccc2nnc(-c3ccccc3)n2n1 25.1 µM [inhibitor, single point]
O=c1c2ccccc2nc(SCc2nnc(-c3ccccc3Br)o2)n1Cc1ccco1 22.4 µM [inhibitor, single point]
COc1ccc(Cc2nnc(NC(=O)Cc3cccs3)s2)cc1OC 25.1 µM [inhibitor, single point]
COCCNS(=O)(=O)c1ccc(-c2ccc(C)cc2)cc1 28.2 µM [inhibitor, partial curve]
Clc1cccc(CSc2ncn(-c3ccccc3)n2)c1 35.5 µM [inhibitor, partial curve]
CCN(CC)CCN1C(=O)c2ccccc2NC1c1ccc(C)cc1 (stereo not given) 25.1 µM [inhibitor, partial curve]
